{
  "source": "the supplement of paper PMC11417369",
  "note": "Some of the results follow.",
  "data": [
    {"system": "PfHDP1 homeodomain (GST-tagged)", "test": "gcPBM binding intensity (ln(normalized median fluorescence intensity)); higher = stronger DNA binding", "procedure,_shortened": "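After 1 h on an Agilent 4 × 180k array of primer-extended double-stranded 36-bp intergenic genomic probes and negative controls, bound GST-tagged P. falciparum DNA-binding domains were detected with Alexa488 anti-GST antibody and scanned at 488 nm. The domains had been expressed in E. coli, and binding took place in 1× PBS with 1% milk, 0.2 mg/ml BSA, 0.5% salmon testes DNA and 0.03% Triton X-100. Binding intensity is the highest Masliner-normalised natural-log median intensity across replicate spots of either probe orientation.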", "values": [
      {"sequence": "ATATATACAAGTATTTTTTTTTCAAACATTATTTTT [CACACA_negctrl_site1808]", "gcPBM binding intensity (ln)": 6.26},
      {"sequence": "TAAAAGGTGTATATAATACACACGTGGGATTAGAAT [CACACA_site610]", "gcPBM binding intensity (ln)": 6.89},
      {"sequence": "ATATATATATATATATGTACATAATAATATATATTA [XGTACX_site111]", "gcPBM binding intensity (ln)": 9.27},
      {"sequence": "ATATGTTATATGTAATGTACTTTTGATGTATATATT [XGTACX_site8615]", "gcPBM binding intensity (ln)": 6.62},
      {"sequence": "AAAATATTATAAATTTGTACTTATAAATATTGTATA [XGTACX_site8165]", "gcPBM binding intensity (ln)": 6.23},
      {"sequence": "TATATAAAGCATTGTAGTACTACCAATATTTTTTTT [XGTACX_site3523]", "gcPBM binding intensity (ln)": 6.63},
      {"sequence": "AAAAAATATACATATACACACATATGTATATAGAAT [CACACA_site2170]", "gcPBM binding intensity (ln)": 6.33},
      {"sequence": "AAAATAAACAATGAACAATAAACAATGAACAATGAA [CACACA_negctrl_site1194]", "gcPBM binding intensity (ln)": 6.47},
      {"sequence": "TAATAAATAAAATATGCACACAAATATAGGAAACAA [CACACA_site8820]", "gcPBM binding intensity (ln)": 9.13},
      {"sequence": "AACATGAAAATATATGCATTTGTATATATATATATA [TGCATGCA_negctrl_site16]", "gcPBM binding intensity (ln)": 9.4},
      {"sequence": "TATTGTAATATTAGCACACATTACCTCACTACAAAT [CACACA_site5419]", "gcPBM binding intensity (ln)": 7.61},
      {"sequence": "AAAATACTAGATAGGGGAAAAAAAAAAAAAAAAAAA [CACACA_negctrl_site1732]", "gcPBM binding intensity (ln)": 6.26},
      {"sequence": "ATAAATGATAAAATTGCATGTGAATGTGAAAATATT [TGCATGCA_site251]", "gcPBM binding intensity (ln)": 6.85},
      {"sequence": "AAAGCACCCATGCACACACACAAAGGAAAAGAAAAA [CACACA_site6249]", "gcPBM binding intensity (ln)": 8.98},
      {"sequence": "AATAAAACCCCGAAATCACACATTAAATGAAAAATA [CACACA_site4732]", "gcPBM binding intensity (ln)": 7.29},
      {"sequence": "TGGGAAAATAATATTTATTTTATATATAAATATATA [CACACA_negctrl_site121]", "gcPBM binding intensity (ln)": 6.35},
      {"sequence": "AAAAAAAAAAAAGATTGTACAGAATACTTTTAAAAT [XGTACX_site3576]", "gcPBM binding intensity (ln)": 6.37},
      {"sequence": "AAGTTAATGAAAAAATGTACCCAGAGTATTTTAAAA [XGTACX_site2997]", "gcPBM binding intensity (ln)": 6.47},
      {"sequence": "TAAAATAAAACAAACACACACACACGGACACAAAAA [CACACA_site7754]", "gcPBM binding intensity (ln)": 7.04},
      {"sequence": "TTTTTTTTTTATTTTGCACACTTCTAATTTAGTTCT [CACACA_site5828]", "gcPBM binding intensity (ln)": 10.7},
      {"sequence": "ATATAAATAAAATATACACACATACTGTTCATTTAA [CACACA_site7880]", "gcPBM binding intensity (ln)": 6.46},
      {"sequence": "TCCATATATTTTAAAAGTACACATAAAAATTATTTA [XGTACX_site8127]", "gcPBM binding intensity (ln)": 6.32},
      {"sequence": "AATGGAAAAATAGGCACACACACATATATACATATA [CACACA_site1298]", "gcPBM binding intensity (ln)": 6.74},
      {"sequence": "TTGTTTTTCTTTGAATGTACTTAATGATTTCCAATT [XGTACX_site2499]", "gcPBM binding intensity (ln)": 6.44},
      {"sequence": "TTTATTTTGATTTAATGTACAAATAGTAAAACAAAA [XGTACX_site4789]", "gcPBM binding intensity (ln)": 6.55},
      {"sequence": "CTATAACCTCTGTTCACACATATATCATAATTTACA [CACACA_site5446]", "gcPBM binding intensity (ln)": 6.84},
      {"sequence": "ACATTATATCTAAGTACACACATTAATTTTTTTTTT [CACACA_site7850]", "gcPBM binding intensity (ln)": 6.78},
      {"sequence": "TATTTAAAAGCATATACACACAACTGGAATGAAAAG [CACACA_site6128]", "gcPBM binding intensity (ln)": 7.18},
      {"sequence": "GTTTCAAAATTAAACACACACAAAAAAAAAAAAAAA [CACACA_site2680]", "gcPBM binding intensity (ln)": 6.25},
      {"sequence": "TATTATATCTTTATTATTCATCTAAAATTTGTATTT [TGCATGCA_negctrl_site233]", "gcPBM binding intensity (ln)": 6.21},
      {"sequence": "ATCATATATGTTATTACACACGTTATGTTATTATAA [CACACA_site2712]", "gcPBM binding intensity (ln)": 6.88},
      {"sequence": "TATAATTTAGCTTGTGCATGCAGGTGCTACATTTGT [TGCATGCA_site217]", "gcPBM binding intensity (ln)": 8.63},
      {"sequence": "GTGCATAGATGATATACACACAATATAATAGTATGT [CACACA_site5373]", "gcPBM binding intensity (ln)": 6.82},
      {"sequence": "TTAATTTCAAGTAGAAGTACTTTTATGATTGTGAGG [XGTACX_site1247]", "gcPBM binding intensity (ln)": 6.14},
      {"sequence": "TATATAATATATATATGTACACATATACATTTTTAT [XGTACX_site2832]", "gcPBM binding intensity (ln)": 6.56},
      {"sequence": "TTTTCGGATAATAATTGTACGAAACATTTAAAAAAA [XGTACX_site8898]", "gcPBM binding intensity (ln)": 6.13},
      {"sequence": "TTGTAAGAAAAACACACACACACATATATATATATA [CACACA_site795]", "gcPBM binding intensity (ln)": 9.39},
      {"sequence": "ACTCAAAATTATAATTGTACAAATGCTTTGTTTAAT [XGTACX_site3437]", "gcPBM binding intensity (ln)": 6.95},
      {"sequence": "TAAATAGTTATAAAAGTGCAAAAAAAAAAAAAAAAA [GTGCAC_site9550]", "gcPBM binding intensity (ln)": 8},
      {"sequence": "AATTTAAAAGAAAAAGAAAAATAATAAACAGAAGCA [XGTACX_negctrl_site503]", "gcPBM binding intensity (ln)": 6.53},
      {"sequence": "TTGATTTACTATAGATGTACGTAAAATATAAATAAA [XGTACX_site8256]", "gcPBM binding intensity (ln)": 6.52},
      {"sequence": "ATAAAACAAAAATATAAACACACATACATTGGTTTT [CACACA_site8809]", "gcPBM binding intensity (ln)": 6.5},
      {"sequence": "ATAAAAAATAAATATATACATACATACATACATATA [XGTACX_negctrl_site507]", "gcPBM binding intensity (ln)": 6.12}
    ]}
  ]
}
